Experimental data as given in article PMC4336329 (PLoS ONE, 2015).
Screen size: about 310,000 compounds; about 2,200 (0.71%) showed an effect of 50% or more. The effect is printed as a negative number. Some of the results follow.

These compounds were tested against human ether-à-go-go-related gene (hERG) potassium channel (human, UniProt Q12809) (assay: primary screen, population patch clamp on CHO cells stably expressing hERG).
human ether-à-go-go-related gene (hERG) potassium channel, sequence (Q12809 whole entry, looked up): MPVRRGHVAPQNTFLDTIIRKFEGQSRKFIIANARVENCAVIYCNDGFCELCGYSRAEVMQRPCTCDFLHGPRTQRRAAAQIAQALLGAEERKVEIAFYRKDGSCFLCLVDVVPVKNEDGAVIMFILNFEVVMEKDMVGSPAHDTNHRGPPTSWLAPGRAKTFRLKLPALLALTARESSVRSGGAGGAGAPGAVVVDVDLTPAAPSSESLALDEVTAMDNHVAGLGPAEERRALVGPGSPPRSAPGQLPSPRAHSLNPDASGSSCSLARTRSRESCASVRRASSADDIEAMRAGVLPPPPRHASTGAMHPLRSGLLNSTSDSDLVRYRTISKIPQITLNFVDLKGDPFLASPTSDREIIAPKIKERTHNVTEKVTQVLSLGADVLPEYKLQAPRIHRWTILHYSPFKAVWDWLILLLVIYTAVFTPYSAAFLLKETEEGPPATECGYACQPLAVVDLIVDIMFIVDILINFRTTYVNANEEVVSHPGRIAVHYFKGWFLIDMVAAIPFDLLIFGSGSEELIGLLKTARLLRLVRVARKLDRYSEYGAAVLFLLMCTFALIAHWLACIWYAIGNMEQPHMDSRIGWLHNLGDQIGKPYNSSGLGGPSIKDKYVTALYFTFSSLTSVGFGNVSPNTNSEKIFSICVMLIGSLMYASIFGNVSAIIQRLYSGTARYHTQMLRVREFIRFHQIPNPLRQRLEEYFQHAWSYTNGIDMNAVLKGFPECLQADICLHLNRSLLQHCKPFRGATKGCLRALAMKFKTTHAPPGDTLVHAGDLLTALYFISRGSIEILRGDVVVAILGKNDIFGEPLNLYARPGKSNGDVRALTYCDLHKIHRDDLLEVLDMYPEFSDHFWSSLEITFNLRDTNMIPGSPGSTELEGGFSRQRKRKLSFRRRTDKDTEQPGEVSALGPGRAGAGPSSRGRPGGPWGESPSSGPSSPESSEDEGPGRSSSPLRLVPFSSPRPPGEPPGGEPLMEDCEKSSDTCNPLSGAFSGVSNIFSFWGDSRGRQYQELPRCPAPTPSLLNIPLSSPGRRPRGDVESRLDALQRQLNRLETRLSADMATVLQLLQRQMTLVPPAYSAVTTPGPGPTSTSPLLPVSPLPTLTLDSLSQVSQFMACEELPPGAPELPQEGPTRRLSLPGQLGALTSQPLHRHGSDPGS

| SMILES | hERG current change (%, negative = inhibition) at 1uM [%] |
| --- | --- |
| COc1ccc(/C=C2\SC(=S)N(CCCC(=O)Nc3ccccc3C(=O)O)C2=O)cc1OC | 10.6 |
| CCn1c(SCC(=O)c2ccccc2)nnc1-c1cnccn1 | 6.83 |
| O=C(c1ccc([N+](=O)[O-])cc1)N1CCCC1 | 9.66 |
| O=C1Nc2ccccc2C(=O)N2CCCCC12 (stereo not shown) | 7.83 |
| Cn1c(-c2ccccc2)cnc1NCc1cccc([N+](=O)[O-])c1 | -27.7 |
| CC1CCCC(NC(=O)C2CCN(S(=O)(=O)c3cccc4nonc34)CC2)C1C (stereo not shown) | 7.74 |
| Cc1ccc2cccc(NC(=S)NC(=O)c3ccnn3C)c2n1 | 7.23 |
| Cc1cc(=O)n(C2CCS(=O)(=O)C2)[nH]1 (stereo not shown) | 8.53 |
| CC1=Nn2c(nnc2-c2n[nH]c3c2CCC3)SC1 | 9.88 |
| CS(=O)(=O)N1CCN(c2ccccc2NC(=S)NC(=O)c2ccco2)CC1 | 1.56 |
| Clc1ccc(-n2ncc3c(NCc4ccccn4)ncnc32)cc1 | 11 |
| COc1ccc2c3c(c(=O)oc2c1OCC(=O)C(C)(C)C)CCCC3 | 12.1 |
| CN(C)S(=O)(=O)c1ccc(NC(=O)CSc2n[nH]c(=O)n2C2CC2)cc1 | 22.3 |
| CCOC(=O)Cc1csc(NC(=O)/C=C/c2ccco2)n1 | 11.1 |
| Cn1c(=O)c2c(SCC(=O)Nc3ccccc3F)nc(C3CC3)nc2n(C)c1=O | -0.358 |
| Nc1cccc(S(=O)(=O)c2ccc(N)c(N)c2)c1 | 11.1 |
| O=C(c1cc(-c2cccs2)on1)N1CCc2ccccc2C1 | 2.06 |
| Clc1c(-c2nnc3n2CCCCC3)sc2ccccc12 | -2.64 |
| Cc1nnc(SC(C)C(=O)Nc2ccc(S(=O)(=O)NC3CCCCC3)cc2)s1 (stereo not shown) | 5.66 |
| O=C(c1nnc(Cc2ccc(Cl)cc2)o1)N1CCc2ccccc2C1 | 10.3 |
| Cc1occc1C(=O)NNC(=O)c1ccc(Br)o1 | 16.5 |
| CCNC(=O)NC(=O)C(C)On1nnc2ccc(S(=O)(=O)N(CC)CC)cc21 (stereo not shown) | 11.5 |

| SMILES | hERG current change (%, negative = inhibition) at 1uM [%] |
| --- | --- |
| COc1ccccc1-c1ocnc1C(=O)N1CCN(S(=O)(=O)c2ccc(NC(C)=O)cc2)CC1 | 9.96 |
| CC(C)[C@H](NC(=O)OCc1ccccc1)C(=O)OCC(=O)NC1(C#N)CCCC1 | 9.89 |
| Cc1cccc(C(C(=O)NC2CCCC2)N(C(=O)c2csnn2)C2CC2)c1 (stereo not shown) | -12.7 |
| CCOC(=O)c1[nH]c2ccc(OC)cc2c1NC(=S)N1CCN(c2ccccn2)CC1 | -4.86 |
| Cc1ccc2cc(C3C(C#N)=C(N)Oc4c3ccc3cccnc43)c(=O)[nH]c2c1 (stereo not shown) | -8.42 |
| Cc1ccc(S(=O)(=O)CC(=O)c2ccc(C)c([N+](=O)[O-])c2)cc1 | 8.42 |
| COc1ccc(O)c(/C=N/Nc2nc3ccccc3[nH]2)c1 | 3.48 |
| CCOC(=O)c1c(C)[nH]c(C)c1C(=O)CN1C(=O)NC2(CCC(C)CC2)C1=O (stereo not shown) | 11.3 |
| COc1ccccc1NC(=O)CCC(=O)N1CC(C)Oc2ccc(C)cc21 (stereo not shown) | 11.2 |
| CS(=O)(=O)c1ccc(C(=O)NCC(c2ccco2)N2CCCCC2)cc1 (stereo not shown) | 12.8 |
| CC(C)OC(=O)CSc1nnnn1-c1ccc2c(c1)OCCO2 | 13.1 |
| O=C(N/N=C/c1cccc(OCc2ccccc2)c1)c1cccs1 | 0.137 |
| O=C(NCC(=O)N(c1ccccc1)C(C(=O)NC1CCCCC1)c1cccnc1)c1ccco1 (stereo not shown) | 13.4 |
| O=C(c1cnc2n(c1=O)CCS2)N1CCN(C(c2ccccc2)c2ccc(Cl)cc2)CC1 (stereo not shown) | 0.872 |
| c1ccc(CN2CCN(c3nc(-c4ccccc4)nc(-n4ccnc4)n3)CC2)cc1 | 8.62 |
| Cn1c(=O)[nH]c(=O)c2c1nc(SCCCO)n2CCCc1ccccc1 | 3.8 |
| CNC(=O)C1CCN(S(=O)(=O)c2c(C)noc2/C=C/c2ccc(OC)cc2)CC1 | 1.74 |
| CCOC(=O)C1CCN(C(=O)CN(c2ccc3c(c2)OCCO3)S(=O)(=O)c2ccccc2)CC1 | -7.68 |
| CCCCCCCCCCCCCCCC(=O)NCCO | 7.12 |
| Cc1ccc2cccc(Oc3ncnc4sc(C)c(C)c34)c2n1 | 9.58 |
| CN(c1ccc(OCC(=O)OCC(=O)Nc2ccccc2)cc1)S(=O)(=O)c1ccc(F)cc1 | 3.22 |
| NC(=O)CC(NC(=O)Cc1cccc2ccccc12)c1ccc(NCCc2cccc(F)c2)c([N+](=O)[O-])c1 (stereo not shown) | 5.18 |

| SMILES | hERG current change (%, negative = inhibition) at 1uM [%] |
| --- | --- |
| CCOC(=O)Nc1ccc2c(c1)N(C(=O)CN1CCN3CCCC3C1)c1ccccc1CC2.Cl (stereo not shown) | 5.09 |
| Nc1ccc(S(=O)(=O)N2CCCC2C(=O)O)cc1 (stereo not shown) | -0.507 |
| Cc1ccc(CNC(=O)[C@H]2C[C@@H]2[C@H](NP(=O)(c2ccccc2)c2ccccc2)c2ccccc2)o1 | 6.31 |
| Cc1c(NS(=O)(=O)c2ccc(Br)cc2)c(=O)n(-c2ccccc2)n1C | 7.34 |
| CCOc1ccc(N(CC(=O)Nc2ccccc2C(=O)N2CCOCC2)S(=O)(=O)c2ccc(F)cc2)cc1 | -1.78 |
| COc1ccc(S(=O)(=O)NNC(=O)c2ccc([N+](=O)[O-])cc2)cc1 | 10.8 |
| CC1=CCC2C(=O)N(c3ccc(S(N)(=O)=O)cc3)C(=O)C2C1 (stereo not shown) | 14 |
| COc1ccc(C(=O)C[n+]2cc(Br)cc3ccccc32)cc1[N+](=O)[O-].[Br-] | -36.1 |
| Cc1cc(C)nc(Nc2cc([N+](=O)[O-])ccc2C)n1.Cl | 11.9 |
| O=C(COc1ccccc1)N1CCN(C(=O)c2ccc([N+](=O)[O-])cc2)CC1 | -19 |
| CCOC(=O)Cc1nn(CCc2ccccn2)c(=O)c2ccccc12 | 0.196 |
| COc1ccc(CCNC(=O)C2CCCN2C(=O)Nc2ccc(F)cc2)cc1OC (stereo not shown) | 14.6 |
| CN1CCN(c2nc(N3CCN(CCO)CC3)nc3ccccc23)CC1.Cl | 14.6 |
| O=C1NC2(CCCCC2)C(=O)N1Cc1ccc([N+](=O)[O-])cc1 | 0.04 |
| O=C(NCCc1ccc(F)cc1)Nc1ccccc1Cl | 14.4 |
| COC(=O)CSC(=S)N1C(C)CCCC1C (stereo not shown) | 10.5 |
| O=C(/C=C/c1cccc(F)c1)N(c1ccccn1)C1CCCCC1 | 6.98 |
| CCCc1c(-c2ccc(O)cc2)nn(-c2ccc(O)cc2)c1-c1ccc(O)cc1 | 19 |
| CC(C)(C)c1ccc(C(=O)NNC(=S)NC(=O)c2cccnc2)cc1 | 16.8 |
| Cc1nn2c(=O)c(NC(=O)c3ccc(Cl)cc3)cnc2s1 | -0.746 |
| COc1cc(C(=S)N2CCOCC2)ccc1OC(=O)c1cc([N+](=O)[O-])c(C)c([N+](=O)[O-])c1 | 27.6 |
| CC(C)N(Cc1ccccc1)C(=O)CN1C(=O)NC2(CCCC2)C1=O | 4.36 |

| SMILES | hERG current change (%, negative = inhibition) at 1uM [%] |
| --- | --- |
| COc1cccc(CNC(=O)CCCNC(=O)c2ccc(Cl)cc2)c1 | 11.1 |
| O=[N+]([O-])c1ccc(N2CCN(C(=S)NCc3ccc(Cl)cc3)CC2)cc1 | 12.9 |
| O=C(NCc1ccccc1)NC1CCS(=O)(=O)C1 (stereo not shown) | 16.7 |
| CCn1cc(CN2CCC(C(=O)Nc3ccc(Oc4ccccc4)nc3)CC2)cn1 | -6.94 |
| Cc1nc(C(=O)O)sc1C1(C)CC(c2cccc([N+](=O)[O-])c2)=NO1 (stereo not shown) | 5.65 |
| O=C(Nc1nncs1)c1cccc(S(=O)(=O)N2CCc3ccccc32)c1 | 1.35 |
| Cc1ccc(NC(=O)c2ccc3ncsc3c2)cc1S(=O)(=O)N(C)C | 3.88 |
| COc1cc(/C=N/OCC(=O)NC23CC4CC(CC(C4)C2)C3)ccc1OCc1ccccc1 | 8.1 |
| COc1ccc(CCNC(=O)C2CCN(Cc3nc(-c4cccc(Cl)c4)oc3C)CC2)cc1OC | -80.9 |
| CCCN1CCN(C(=O)Cn2nc(CC)n3c(cc4sccc43)c2=O)CC1 | -1.76 |
| CCn1cc(C(=O)NC2CC(C)(C)Cc3c2cnn3-c2cccc(F)c2)cn1 (stereo not shown) | 0.858 |
| CCSc1nnc(NC(=O)c2ccc(F)c(S(=O)(=O)N3CCOCC3)c2)s1 | 9.15 |
| CC(=O)Nc1ccc2c(c1)nc(CCN1CCN(C)CC1)n2C | -3.17 |
| O=C(Nc1ccc(NC(=O)c2ccccc2O)cc1)Nc1ccc(F)cc1F | 19.5 |
| COc1cc2c(c(OC)c1OC)-c1ccc(OC)c(=O)cc1[C@@H](NC(C)=O)CC2 | 11 |
| CCOC(=O)N1CCN(C(=O)CNC(=O)Cc2ccc(Cl)cc2)CC1 | -0.255 |
| CC(c1ccco1)N(C(=O)C12CC3(C)CC(C)(CC(C)(C3)C1)C2)c1ccccn1 (stereo not shown) | 19 |
| Cn1ncc(N=Cc2ccccc2[N+](=O)[O-])c1C(N)=O | 12.6 |
| COc1ccc(N(CC(=O)NCCc2ccccc2)C(=O)CCC(=O)Nc2nccs2)c(OC)c1 | 7.34 |
